Laboratory results published in PMC5584213.
No constants are given. Whether binding was seen depends on the method and setting. For some assays here: In cells and extracts the contact can be indirect. Some binding calls cover weakened binding; strength is not graded here. Sequences can lack the tags named with a protein.

T1: cylindromatosis (CYLD), full-length (UniProt Q9NQC7)
T1 sequence: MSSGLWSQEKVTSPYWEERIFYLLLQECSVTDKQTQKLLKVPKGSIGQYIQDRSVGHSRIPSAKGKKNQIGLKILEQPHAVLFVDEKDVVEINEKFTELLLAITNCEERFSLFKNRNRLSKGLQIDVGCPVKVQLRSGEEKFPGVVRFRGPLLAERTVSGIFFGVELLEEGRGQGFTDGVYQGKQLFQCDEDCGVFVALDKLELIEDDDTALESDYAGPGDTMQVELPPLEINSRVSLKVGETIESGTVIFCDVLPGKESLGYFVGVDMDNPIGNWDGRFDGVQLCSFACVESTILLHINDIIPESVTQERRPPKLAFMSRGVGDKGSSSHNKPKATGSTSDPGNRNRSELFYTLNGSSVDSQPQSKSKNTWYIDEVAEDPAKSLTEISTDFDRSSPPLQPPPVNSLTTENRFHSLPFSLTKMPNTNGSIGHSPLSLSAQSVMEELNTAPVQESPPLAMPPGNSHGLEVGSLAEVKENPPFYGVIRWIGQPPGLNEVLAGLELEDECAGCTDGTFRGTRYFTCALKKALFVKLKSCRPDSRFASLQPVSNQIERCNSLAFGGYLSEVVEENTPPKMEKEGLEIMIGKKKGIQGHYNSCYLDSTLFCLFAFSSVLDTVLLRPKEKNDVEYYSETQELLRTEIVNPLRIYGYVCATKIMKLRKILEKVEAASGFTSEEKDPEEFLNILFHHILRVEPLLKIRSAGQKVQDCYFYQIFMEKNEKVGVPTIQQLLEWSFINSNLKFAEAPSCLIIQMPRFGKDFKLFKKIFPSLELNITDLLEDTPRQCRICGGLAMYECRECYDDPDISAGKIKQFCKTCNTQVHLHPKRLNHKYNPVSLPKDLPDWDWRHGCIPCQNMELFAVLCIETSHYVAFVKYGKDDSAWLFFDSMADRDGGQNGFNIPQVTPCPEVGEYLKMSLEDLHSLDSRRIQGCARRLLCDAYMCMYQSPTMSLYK

B1: cylindromatosis (CYLD), full-length (enzyme, UniProt Q9NQC7-2 1-953)
chain: T1 sequence
B2: GFP-CYLD (556-953) (domain or fragment, UniProt Q9NQC7-2 556-953)
chain: NSLAFGGYLSEVVEENTPPKMEKEGLEIMIGKKKGIQGHYNSCYLDSTLFCLFAFSSVLDTVLLRPKEKNDVEYYSETQELLRTEIVNPLRIYGYVCATKIMKLRKILEKVEAASGFTSEEKDPEEFLNILFHHILRVEPLLKIRSAGQKVQDCYFYQIFMEKNEKVGVPTIQQLLEWSFINSNLKFAEAPSCLIIQMPRFGKDFKLFKKIFPSLELNITDLLEDTPRQCRICGGLAMYECRECYDDPDISAGKIKQFCKTCNTQVHLHPKRLNHKYNPVSLPKDLPDWDWRHGCIPCQNMELFAVLCIETSHYVAFVKYGKDDSAWLFFDSMADRDGGQNGFNIPQVTPCPEVGEYLKMSLEDLHSLDSRRIQGCARRLLCDAYMCMYQSPTMSLYK
B3: GFP-CYLD (1-555) (domain or fragment, UniProt Q9NQC7-2 1-555)
chain: MSSGLWSQEKVTSPYWEERIFYLLLQECSVTDKQTQKLLKVPKGSIGQYIQDRSVGHSRIPSAKGKKNQIGLKILEQPHAVLFVDEKDVVEINEKFTELLLAITNCEERFSLFKNRNRLSKGLQIDVGCPVKVQLRSGEEKFPGVVRFRGPLLAERTVSGIFFGVELLEEGRGQGFTDGVYQGKQLFQCDEDCGVFVALDKLELIEDDDTALESDYAGPGDTMQVELPPLEINSRVSLKVGETIESGTVIFCDVLPGKESLGYFVGVDMDNPIGNWDGRFDGVQLCSFACVESTILLHINDIIPESVTQERRPPKLAFMSRGVGDKGSSSHNKPKATGSTSDPGNRNRSELFYTLNGSSVDSQPQSKSKNTWYIDEVAEDPAKSLTEISTDFDRSSPPLQPPPVNSLTTENRFHSLPFSLTKMPNTNGSIGHSPLSLSAQSVMEELNTAPVQESPPLAMPPGNSHGLEVGSLAEVKENPPFYGVIRWIGQPPGLNEVLAGLELEDECAGCTDGTFRGTRYFTCALKKALFVKLKSCRPDSRFASLQPVSNQIERC
B4: GFP-CYLD^ΔB-box (Δ786-837) (enzyme, UniProt Q9NQC7-2)
chain: MSSGLWSQEKVTSPYWEERIFYLLLQECSVTDKQTQKLLKVPKGSIGQYIQDRSVGHSRIPSAKGKKNQIGLKILEQPHAVLFVDEKDVVEINEKFTELLLAITNCEERFSLFKNRNRLSKGLQIDVGCPVKVQLRSGEEKFPGVVRFRGPLLAERTVSGIFFGVELLEEGRGQGFTDGVYQGKQLFQCDEDCGVFVALDKLELIEDDDTALESDYAGPGDTMQVELPPLEINSRVSLKVGETIESGTVIFCDVLPGKESLGYFVGVDMDNPIGNWDGRFDGVQLCSFACVESTILLHINDIIPESVTQERRPPKLAFMSRGVGDKGSSSHNKPKATGSTSDPGNRNRSELFYTLNGSSVDSQPQSKSKNTWYIDEVAEDPAKSLTEISTDFDRSSPPLQPPPVNSLTTENRFHSLPFSLTKMPNTNGSIGHSPLSLSAQSVMEELNTAPVQESPPLAMPPGNSHGLEVGSLAEVKENPPFYGVIRWIGQPPGLNEVLAGLELEDECAGCTDGTFRGTRYFTCALKKALFVKLKSCRPDSRFASLQPVSNQIERCNSLAFGGYLSEVVEENTPPKMEKEGLEIMIGKKKGIQGHYNSCYLDSTLFCLFAFSSVLDTVLLRPKEKNDVEYYSETQELLRTEIVNPLRIYGYVCATKIMKLRKILEKVEAASGFTSEEKDPEEFLNILFHHILRVEPLLKIRSAGQKVQDCYFYQIFMEKNEKVGVPTIQQLLEWSFINSNLKFAEAPSCLIIQMPRFGKDFKLFKKIFPSLELNITDLLEDTPRQCPKDLPDWDWRHGCIPCQNMELFAVLCIETSHYVAFVKYGKDDSAWLFFDSMADRDGGQNGFNIPQVTPCPEVGEYLKMSLEDLHSLDSRRIQGCARRLLCDAYMCMYQSPTMSLYK
B5: GST-CYLD (1-555) (domain or fragment, UniProt Q9NQC7-2 1-555)
chain: B3 chain

Legend:
[1] = target: T1, cylindromatosis (CYLD), full-length; experiment: pull-down; GST pull-down from lysates of co-transfected HEK293T cells; lysates incubated with glutathione-sepharose 4B beads at 4 °C overnight; GST-tagged CYLD as bait; precipitates immunoblotted with anti-Flag, anti-GFP and anti-GST antibodies
GST-CYLD (1-555) = GST-CYLD (1-555) (UniProt Q9NQC7); experiment: native gel or EMSA; lysates of transfected HEK293T cells on 10% native PAGE at 4 °C, then denatured, transferred and blotted with anti-GST antibody; endogenous CYLD present

Row | binding [1] | binding (GST-CYLD (1-555)) | Binder
1 | binds | – | B1
2 | binds | – | B2
3 | no binding | – | B3
4 | no binding | – | B4
5 | – | no binding | B5
